# According to PubChem BioAssay (Tox21):
# Where “and” joins values, the source holds several entries; their conditions need not be identical. Equal entries are not always repeated. Inconclusive means that the source gave no clear call. Such entries were picked first, then a sample of the others. A potency beside an inconclusive call is a rough fit, not a confirmed value. Calls of active or inactive are those of the source. The call rests on the fitted dose curve; in most records, active means well fitted curve in the direction sought with a large enough effect in the repeat runs; inconclusive means weak or mixed curves; inactive means no such curve, though single readings can be large; an effect the other way counts as inactive or inconclusive.
# Test: Caspase-3/7 induction in CHO-K1 cells by small molecules, qHTS assay (AID 1346980); further: nearly all actives have a fitted effect of over 15% in size
# Details: CHO-K1 caspase-3/7 induction, Caspase-Glo luminescence, 17 h; series mostly up to 92.4 µM
# In short: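 Wild-type CHO-K1 cells exposed to compounds for 17hr at 37 C, 5% CO2. Caspase-3/7 activity then measured by Caspase-Glo 3/7 luminescence after 30min at room temperature.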
# Potency means the concentration at half of the fitted maximal effect; tags describe the fitted curve by direction and shape.
row,SMILES,Potency
1,C=CC[N+](C)(C)CC=C,inactive
2,CC(C)C[C@H](NC(=O)[C@H](Cc1ccccc1)NC(=O)c1cnccn1)B(O)O,active: 0.0067 µM
3,C=CC(=O)OCC(C)OCC(C)OCC(C)OC(=O)C=C (stereo not given),active: 24.3 µM
4,Cc1nc(-c2ccccn2)ncc1C(=O)Nn1cc(C)c2cc(F)ccc21,"inconclusive: 68.6 µM [activator, single point]"
5,F[B-](F)(F)F,"inconclusive: 77.7 µM [activator, partial curve, poor fit]"

# Test: Caspase-3/7 induction in HepG2 cells by small molecules, qHTS cell viability counter screen (AID 1346981); further: nearly all actives have a fitted effect of over 30% in size
# Details: CellTiter-Fluor fluorescence, 17 h; series mostly up to 92.4 µM
# In short: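 After a 5-hr attachment period at 37 C and 5% CO2, wild-type HepG2 cells received compounds in DMSO. Sixteen hours later CellTiter-Fluor was dispensed and the fluorescent signal quantified after a further hour.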
row,SMILES,Potency
1,O=C(Oc1ccccc1)c1ccccc1,"inconclusive: 86.3 µM [rising, partial curve, poor fit]"
2,O=C(O)c1cccnc1Nc1cccc(C(F)(F)F)c1,inactive
3,OCCCO,inactive
4,O=C1[C@H](CC[C@H](O)c2ccc(F)cc2)[C@@H](c2ccc(O)cc2)N1c1ccc(F)cc1,"inconclusive: 33.5 µM [cytotoxic, single point]"
5,c1ccc2c(c1)-c1ccc3ccc4cccc5cc-2c1c3c45,"inconclusive: 18.8 µM [rising, partial curve]"
6,Nc1ccc(C(=O)OCCCOC(=O)c2ccc(N)cc2)cc1,inactive
7,O=[N+]([O-])c1ccc(O)cc1C(F)(F)F,active: 43.3 µM
8,CC1=C(CC(=O)O)c2cc(F)ccc2/C1=C\c1ccc(S(C)(=O)=O)cc1,inactive
9,COc1ccc2c(c1)c(CC(=O)O)c(C)n2C(=O)c1ccc(Cl)cc1,"inconclusive: 54.8 µM [cytotoxic, partial curve] and inconclusive: 54.5 µM [cytotoxic, partial curve] and inconclusive: 29.8 µM [cytotoxic, partial curve]"
10,F[B-](F)(F)F,"inconclusive: 21.7 µM [rising, partial curve]"
